From the supplement of paper PMC11417369
± gives the standard deviation of the averaged measurements. This is one part of the list.

Tested on: PfAP2-EXP AP2 domain (GST-tagged)
Assay: gcPBM binding intensity (ln(normalized median fluorescence intensity)); higher = stronger DNA binding
How it was run: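 The binding buffer was 1× PBS containing 1% milk, 0.2 mg/ml BSA, 0.5% salmon testes DNA and 0.03% Triton X-100. In it, GST-tagged P. falciparum DNA-binding domains expressed in E. coli were applied for 1 h to an Agilent 4 × 180k array of primer-extended double-stranded 36-bp intergenic genomic probes plus negative controls. Binding intensity, read with Alexa488 anti-GST antibody and a 488 nm scan, is the highest Masliner-normalised natural-log median intensity across replicate spots of either probe orientation.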

| Sequence | gcPBM binding intensity (ln) |
| --- | --- |
| AAATGAACAAGTGGCACACACACATTCTAACTAATT [CACACA_site3203] | 8.53 ± 0.55 |
| ATATATATATGAATCACACACAAAAAATATAGAGAT [CACACA_site3913] | 9.4 ± 0.085 |
| TTATAAAGAAAAAATTGCTTTAAAAGAAAGATTACA [CACACA_negctrl_site960] | 8.15 ± 0.33 |
| AAAAACAAAATTTGGAGTACAGTTATAATATTATTA [XGTACX_site5245] | 8.34 ± 0.042 |
| TGATTATCCTTCAGGAGTACATATAATATAATATAT [XGTACX_site1479] | 8.55 ± 0.23 |
| AATGAAAAGAAATAATAAATAAATGATGACCAGCTG [GTGCAC_negctrl_site398] | 8.74 ± 0.36 |
| ACCTTTAATAAATACACACACATAAAAAAAATATAT [CACACA_site5086] | 9.24 ± 0.45 |
| AATGAACAGACGAGCACACACACACCCATATATATA [CACACA_site1018] | 8.85 ± 0.35 |
| TAATGTATTATTTAATGTACTTAAAAAATAAATAAA [XGTACX_site3296] | 8.39 ± 0.18 |
| GGGGAGCTATCTCCTGCACACACAATTTTTTTTTTT [CACACA_site8703] | 8.89 ± 0.38 |
| CACAAATATATACATACACACATATATACGCATATA [CACACA_site395] | 8.53 ± 0.36 |
| TATTATATGAATAATTGTACGAAATTTAAAAGACAA [XGTACX_site7558] | 8.68 ± 0.34 |
| ATCACTAATTTTTTTACACACCACAATTTAATTTTT [CACACA_site1186] | 8.88 ± 0.35 |
| AAATGTGTTAATGTGCGTACACATATATATAATATT [XGTACX_site2792] | 8.52 ± 0.27 |
| AATATATACACATGCGCACACACAAGTGGGAAATTT [CACACA_site8527] | 8.92 ± 0.45 |
| TTTTTTTTTTTTTTTTTTATATTTCATAATTTCATT [XGTACX_negctrl_site579] | 8.18 ± 0.37 |
| TTTATATTTCATTTGTTATTTTTCTTGGTTCTATAT [TGCATGCA_negctrl_site23] | 8.67 ± 0.11 |
| TCATTTAAGTCATATTGAAATATGCATTATTCAAAA [CACACA_negctrl_site958] | 8.3 ± 0.33 |
| TTTTGCCTGAACAATGCATGTTATTTTTATTTTTTT [TGCATGCA_site673] | 8.77 ± 0.43 |
| ATATACAGAAAAAATTAAAATAAATATGCAAAACAA [CACACA_negctrl_site704] | 8.86 ± 0.32 |
| AATATACGATTGTCATTCATACATTGTTAACATAGT [CACACA_negctrl_site1151] | 8.61 ± 0.27 |
| ACATAGTAAATATTATGTACATAATATATACATTTA [XGTACX_site7500] | 8.46 ± 0.33 |

| Sequence | gcPBM binding intensity (ln) |
| --- | --- |
| TACAATGAACATGAAACACACAAAAAAAAAAAAAAA [CACACA_site1544] | 8.27 ± 0.58 |
| TTTACTTTTTTTATATATTATTTATTATATAATATA [CACACA_negctrl_site211] | 8.43 ± 0.39 |
| TAAAAATGATCAAAGGGTACAGTATTAATTAAAAAA [XGTACX_site1079] | 8.63 ± 0.52 |
| TACATATATATAATATATATATCATCATATTTTCTT [XGTACX_negctrl_site478] | 8.26 ± 0.36 |
| CTTAAACTTTTAAATACACACATACAGACATACACA [CACACA_site6401] | 8.84 ± 0.28 |
| ATATGTACTATACGCACACACACTCACATATTTATA [CACACA_site7510] | 9.13 ± 0.35 |
| TTTATTTATATAATTACACACATATATACTCAAATG [CACACA_site5543] | 8.36 ± 0.33 |
| ATAGGGTTTCTACTTTAACATTTTTGAAATATTATA [GTGCAC_negctrl_site260] | 8.44 ± 0.36 |
| TTCTTAATTCATACCATCAAAACATTTATTCATATC [CACACA_negctrl_site43] | 8.52 ± 0.5 |
| TATTTAGACATAACAAATAGACTAACAAAAGATTTA [GTGCAC_negctrl_site614] | 8.28 ± 0.085 |
| ATAATAAATACACTAGTGCAAAATAATATATGTACT [GTGCAC_site9707] | 9.12 ± 0.31 |
| TATTATAAATAAATAGAAAAAAAAATGATAAATGGA [CACACA_negctrl_site865] | 8.62 ± 0.42 |
| TATATATACTTAGAAACACACAAAAATATTTTATAA [CACACA_site2578] | 8.59 ± 0.42 |
| TAATTAGTTTTTACTTTTTTTTTTTTTTTTCTATAT [CACACA_negctrl_site1024] | 8.13 ± 0.46 |
| ATAATCCTGAAACACACACACACACCCATAAATAAA [CACACA_site481] | 8.65 ± 0.59 |
| TTATGTATATTATAAATTAATACCTTTAAATTAATA [CACACA_negctrl_site67] | 7.88 ± 0.28 |
| TATAACTTATTTTTTAGTACATATTATAGTTCATTT [XGTACX_site8649] | 8.6 ± 0.33 |
| TTTATTTAAAATAAGTGTACTAGAAAAATTAAGCAG [XGTACX_site4982] | 8.65 ± 0.35 |
| TAAAAGGAGACATATACACACATATATATATATATA [CACACA_site5539] | 10.1 ± 0.42 |
| ATTCCTCATTAATATTCTTATTTTTTAATTCACATT [XGTACX_negctrl_site329] | 8.87 ± 0.35 |
| TGTGATTATGATAAAAGTACAGAAATAAATATACTA [XGTACX_site38] | 8.46 ± 0.29 |
| TTTTATAAAGAACACAGACACACAAAGAAAGAACCA [CACACA_site4174] | 9.02 ± 0.6 |

| Sequence | gcPBM binding intensity (ln) |
| --- | --- |
| ATAAAAAGCTAAAAAGTGCAAAAAGTAAATATTTAA | 9 ± 0.44 |
| ACCAATTTGACAAACTGTACAAAAAAAATATTAAAA [XGTACX_site1186] | 8.44 ± 0.5 |
| TACACAAAAATAAACACACACACATATATATATATA [CACACA_site1000] | 10 ± 0.22 |
| TATATATTCCTCCATAGTACAATAATAAAGATAAAA [XGTACX_site5785] | 8.52 ± 0.49 |
| CTTTCCCTATATTGCTGTACATGTATTCAAAAAACA [XGTACX_site353] | 9.1 ± 0.42 |
| CGCGAACATACATACACACACATATATATATCTGTA [CACACA_site4277] | 8.79 ± 0.47 |
| AACATTAATTTCCTATGTACTTAATATATTGTTTTT [XGTACX_site4440] | 8.81 ± 0.4 |
| AACACCCAAAAACACACACACATACATACATACATA [CACACA_site4411] | 8.7 ± 0.35 |
| ATTTATATATATGTATGTACGTATGTGTGTATATGT [XGTACX_site7587] | 9.02 ± 0.33 |
| ATTATAAATATATTTTGTACTTAAAAGGAAAAAAAA [XGTACX_site55] | 8.28 ± 0.4 |
| ATTACATGTATACATGTCAACACGTATAAAAAAAAA [CACACA_negctrl_site1154] | 8.64 ± 0.49 |
| TACACAAACAGACACACACACACACGCGCACAAAAA [CACACA_site7192] | 8.73 ± 0.54 |
| AATAAGCATAGACACACACACAAAAAAAAAAAAAAA [CACACA_site6476] | 8.21 ± 0.49 |
| AATAAATAGAGGAAATGTACATATAAAAATAATTTC [XGTACX_site2454] | 8.88 ± 0.35 |
| GATTATCTTCAAGTATGTACACACTATATATAATAA [XGTACX_site5108] | 8.81 ± 0.26 |
| TTAACATCTTCGTTGACACACAAAAAAAAAAATAAT [CACACA_site1819] | 8.35 ± 0.47 |
| GCACGAAACAATGTATATATATATATATATATATAT [GTGCAC_negctrl_site412] | 10.1 ± 0.45 |
| TTCTTTATGGAAGTGTAAAAAAAGAAATACTTTTTT [CACACA_negctrl_site915] | 8.03 ± 0.41 |
| ATATAACAGAAACACACACACATATATATATATTAT [CACACA_site4140] | 8.9 ± 0.53 |
| ATAAATGATAGTAAAAGTACACAAAATGTTTTAAAA [XGTACX_site1623] | 8.53 ± 0.45 |
| TATTTTTATATATAATCACACATTGGAATGTTCTAA [CACACA_site5540] | 8.46 ± 0.37 |
| TATATATATCTGTATACACACATATGTATGTTATGT [CACACA_site6090] | 8.7 ± 0.38 |

| Sequence | gcPBM binding intensity (ln) |
| --- | --- |
| ATATTTTTTCTGAACGGTACAGAATTTTTCAAGATT [XGTACX_site484] | 8.57 ± 0.43 |
| AAGAAAAGTAAATATGCATGTAGGGTAGGTTATTTT [TGCATGCA_site46] | 8.94 ± 0.23 |
| CCTTTTTCTAATGGATGTACTTATTATATACATTAT [XGTACX_site281] | 8.55 ± 0.31 |
| TTATTTTATCACACATGTACATATGTTAATTTTTTT [XGTACX_site5598] | 8.84 ± 0.33 |
| AAATTTATATATAGTTGTACAAAAATATGTTTCGTA [XGTACX_site4801] | 8.51 ± 0.34 |
| TGAATAATCAATAGTACACACATATAAATATATATA [CACACA_site2813] | 8.44 ± 0.22 |
| AAAATAAAAAGAAATAAATTAACAGTAAGGAAAAAA [CACACA_negctrl_site1105] | 8.81 ± 0.43 |
| ATGCGTTCATACATACATACATACATACAATTTGTA [TGCATGCA_negctrl_site50] | 8.74 ± 0.4 |
| GAACAAATTACAAGTTGTACTTTATGTAAATTATTA [XGTACX_site5304] | 8.26 ± 0.28 |
| TTTTTATAACAAAGTATTTAAATAATTTATACTAAT [TGCATGCA_negctrl_site104] | 8.05 ± 0.39 |
| AACATTTATATTTAAGTGCAGATGCTGTAATTTAGA | 8.49 ± 0.36 |
| TGCTCATGAGGTCAGAGTACAAAATAGTAAATGTAT [XGTACX_site2973] | 8.71 ± 0.42 |
| TAATTCATCCTATGCACACACAATACCAAAATGTGC [CACACA_site4269] | 8.57 ± 0.44 |
| TAATTTATTAATAATTGTACAGATATTATACTTAAA [XGTACX_site8947] | 8.15 ± 0.28 |
| TTTTGAATTAAACAAGCATGCTTTATTTACTTCTTA [TGCATGCA_site289] | 8.54 ± 0.47 |
| TTTTTTTTTTTTTTTCTTTTTTATTCTCACAAAAAA [CACACA_negctrl_site1790] | 8.23 ± 0.38 |
| TTTATTTTTATTTTTGTGCACGGGATTAAATAAAAG [GTGCAC_site9842] | 9.53 ± 1 |
| AAAAAAAAAAAAAATAATAAATAAATAAATAAATAA [GTGCAC_negctrl_site505] | 8.76 ± 0.099 |
| CGTAGCCGCACTAACACACACAAATATACGCAATCA [CACACA_site2898] | 8.71 ± 0.32 |
| AAAAATAAAAAAAAATTAAAATATATATATTTTGTT [TGCATGCA_negctrl_site102] | 8.52 ± 0.28 |
| AGGAAAAAAAGTAGCACACAAATATTTATAATATAT [CACACA_site2437] | 8.64 ± 0.52 |
